Measured values published in the RNAGym collection of RNA variant scans (doi:10.1073/pnas.2313332121).
This sample is rich in variants without activity.

B1: TPR 5TU (parent)
chain: GGAUCUUCUCGAUCUAACAAAAAAGACAAAUCUGCCACAAAGCUUGAGAGCAUCUUCGGAUGCAGAGGCGGCAGCCUUCGGUGGCGCGAUAGCGCCAACGUUCUCAACUAUGACACGCAAAACGCGUGCUCCGUUGAAUGGAGUUUAUCAUG

Variants of: B1
Assay: polymerase ribozyme fitness, log enrichment relative to wild type (log ratio); higher = more active; in vitro selection for triplet polymerase activity
Method in brief: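 Mutant libraries for each subunit of a heterodimeric triplet polymerase ribozyme were made by PCR and then transcribed. Each library underwent one round of in vitro selection in triplicate: annealing with a biotinylated primer, the partner subunit and triplets, frozen incubation at −7 °C, gel excision of extended constructs, streptavidin-bead capture and RT-PCR. Input and output libraries were Illumina-sequenced, and only genotypes with ≥10 input reads and ≥1 read per output were kept. Fitness is the logarithm, base 2, of genotype enrichment over wild-type enrichment, computed from inverse-variance-weighted replicate averages.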

Variant	polymerase ribozyme fitness (log ratio)
GGAUCUUCUCGAUCUAACAAAAAAGACCAAUCUGCCCCAAAGCUUGAGAGCAUCUUAGGAUGCAGAGGCGGCGGCCUUCGGUGGCGCGAUAGCGCCAACGUUCUGAACUAUGACACGCAAAACACGUGCUCCGUUGAAUGGAGUUUAUCAUG	≤ -4.2
GGAUCUUCUCGAUCUAACAAAAAAGAUAAAUCUGCCACAAAGCUUGAGAGCAUCUUCGGAUGCAGAGGCGGCAGCCUAGGGUGGCGCGAUCGCGCCAACGUUCUCAACUAUGACACGGAAAACGCGUGCUCCGUUGAAUGGAGUUUAUCAUG	≤ -4.2
GGAUCUUCUCGAUCUAACAAAAAAGAUAAAUCUGCCACAAAGCUUGAGAGCAUCUUCGGAUGCAGAGGCGGCAGCCUUCGGUGGCGAGAUAGCGCCAACGUUCUCAACUAUGACACGCGAAACGCGUGCUCCGUUGAAUGAAGUUUAUCAUG	≤ -4.2
GGAUCUUCUCGAUCUAACAAAAAAGAUAAACCUGCCACAAAGCUUGAGAGCAUCUUCGGAUGCAGAGGCGGCAGCAUUCGGUGGCUCGAUAGCGCCAACGUUCUCAACUAUGACACGCAAAACGCGUCCUCCGUUGAAUGGACUUUAGCAUA	≤ -4.2
GGAUCUUCUCGAUCUAACAAAAAAGACCACUCUGCCACAAUGCUUGAGAGCAUCUUUGGAUGCAGAGGCGGCAGCCUUCGGUGGCGCGAUAGCGCCAACGUUCUCACCUAUGACACGCAAAACGCGUGCUCCGUUGAAUGGAGUUUAUCAUG	≤ -4.2
GGAUCUUCUCGAUCUAACAAAAAAGACCAAUCUGCCACAGAACUUGAGAGCAUCUCCGGAUGCAGAGGCGGCAGUCUUCGGUGGCGCGAUAGCGCCAACGUUCUCAACUAUGACACGCAAAACGCGUGCUCCGGUGAAUGGAGUUUACCAUG	≤ -4.2
GGAUCUUCUCGAUCUAACAAAAAAGAUAAAUCCGCCACAAAGCUUGAGAGCAUCUUCGGAUGCAGAGGCGGCAGCCUUCGGUCGCGGGAUAGCGCCAACGUUCUCAACUAUGACACGCAAAACGCGUGCUCCGUUGAAUGGAGUUUAUCAUG	≤ -4.2
GGAUCUUCUCGAUCUAACAAAAAAGAUAAAUCUGCCACAAAGCUUGAGAGCAUCUUCGGAUGCAGAGCCGGCAGCCUUCGGUGGCGCGGUAGAGCCAACGUUCUCAACUGUGACACGCAAAACGCGUGCUCCGUUCAAUGGAGUUUAUCAUG	≤ -4.2
GGAUCUUCUCGAUCUAACAAAAAAGACCAUUCUGCCACCAAGCUUGAGAGCAUCUUCGGAUGCAGAGGCGGCAGCAUUCGGUGGUGCGAUAGCGCCAACGUUCUCAACUAUGACACGCAAAACCCGUGCUCCGUUGAAUGGAGUUUAUCAUG	≤ -4.2
GGAUCUUCUCGAUCUAACAAAAAAGAUAAAUCUGCCACAAAGCUUGAGAGCAUCUUCGGAUGCAGAGGCGGCAGCCUUCGGUGGCGCGAUAUCGCCAACGUUCUCAACUAUGAAACGCAAAACGCGUGCUCCGCUUAAUGGAGUUUAUCGUG	≤ -4.2
GGAUCUUCUCGAUCUAACAAAAAAGAUAAAUCUGCCACAAAGCUUGAGAGCAACUUCGGAUGCAGAGGCGGCAGCCUUCGGUGGCGCGAUAGCGCCAACGUUCUCAACUAUGCCACUCAAAACGCGUGCUCCGUUGAAGGGAGUUUAUCAUG	≤ -4.2
GGAUCUUCUCGAUCUAACAAAAAAGAUAAAUCUACCACAAAGCUUGAGAGCAUCUUCGGAUGCAGGGGCGGCAGCCUUCGGUGGCGCGAUAGCGCCAACGUUCUCAACUAUGCCACGCAACACGCGUGCUCCGUUGAAUGGAGUUUAUCAUG	≤ -4.2
GGAUCUUCUCGAUCUAACAAAAAAGAUAAAUCUGCCACAAAGCUUGAGAGCAUCUUCGGAUGCAGAGGCGGCAGCCUUCGGUGGCGCGAUAGUGCCAACGUUCUCCACUAUGACACGCAAAACGCGUGCUCCUUUGAAUGGAGUUUAUCAUG	≤ -4.2
GGAUCUUCUCGAUCUAACAAAAAAGAUAAAUCUGCCACAAAACUUGAGAGCAUCUACGGGUGCAGGGGCGGCAGCCUUGGGUGGUGCGAUAGCGUCAACGUUCUCAACUAUGACACGCAAAACGCGUGCUCCGUUGAAUGGAGUUUAUCAAU	≤ -4.2
GGAUCUUCUCGAUCUAACAAAAAAGAUAAAUCUGCCACAAAGCUUGAGAGCAUCAACGGAUGCAGAGGCGGCAGCCUUCGGUGGCGCGAUAGCGCCAACGUUCUCAACUAUGACACGCAAAACGCGUGCUCCGUUGAAUGGAGUUUAUCAUG	-2.25
GGAUCUUCUCGAUCUAACAAAAAAGACCAAUCUGCCACAAAGCUUGAGCGCAUCUUCGGAUGCAGAGGCGGCAGCCUUCGGUGGCGCGAUAGCGCUAACGUUCUCAACUAUGACACGCAAAACGCGUGCUCCAGUGAAUGGAGUUUAUCAUG	-4.14
GGAUCUUCUCGAUCUAACAAAAAAGAUAAAUCUGCCACAAAGCUUGAGACCAUCUUCGGAUGCAGAGGCGGCAGCCUUCGGUGGCGCGAUAGCGCCAACGUUCUCAACUAUGAGACGCAAAACGCGUGCUCCGUUGAAUGGAGUUUAUCAUG	≤ -4.2
GGAUCUUCUCGAUCUAACAAAAAAGAUAAAGCUGCCACAGAGCUUGAAAGCCUCUUCGGAUGCAGAGGCGGCAGCCUUCGGUGGCGCGAUAGCGUCAACGUUCUCAACUAUGACACGCAAAACGCGUGCUCCGUUGGCUGGAGUUUAUCAUG	≤ -4.2
GGAUCUUCUCGAUCUAACAAAAAAGACCAUUCUGCCACAAAGCUUGAGAGCAUCUUCGGCUGCAGAGGCGGCAGAUUUCGGUGGCGCGAUAGAGGCAACGUUCUCAACUAUGACACGCAAAACGCGUGCUCCGUUGAAUGGAGUUUAUCAUG	≤ -4.2

Variant	polymerase ribozyme fitness (log ratio)
GGAUCUUCUCGAUCUAACAAAAAAGACCAAUCUGCCACAAAGCUUGAGCGCAUCUUCGGAUGCAGAGGCGGCAGCCUUCGGUGGCGCGAUAGCGCCAACGUUCUCAACUAUGACACGCAAAACGCGUGCUCCGUUGAAUGGAGUUUAUCAUG	≤ -4.2
GGAUCUUCUCGAUCUAACAAAAAAGACCAAUCUGCCACAACGCUUGAGAGCAUCUUCGGAUGCAGAGGCGGCAGCCUUCGGUGGCGCGAUAGCGACAACGUUCUCAACUAUGACACGCAAAACGCGUACUCCGUUGAAUCGAAUUUAUCAUG	≤ -4.2
GGAUCUUCUCGAUCUAACAAAAAAGAUAAAUCUGCCACAAAGCUUGAGAGCAUCUUCGAAUGCAGAGGCGGCAGCCUACGGUGGCGUGAUAGCGCCAACGUUCUCAACUAUGACACGCAAAACGCGUGCUCCGUUGAAUGGAGUUUAUCAUG	≤ -4.2
GGAUCUUCUCGAUCUAACAAAAAAGAUAAAUCUGCCACAAAGCUUGAGAGCAUCUUCGGAUGCAGAGGCGGCAGCCUUCGGUGGCGCGAUACCGCCAACGUUCUCAACUAUGACACGCAAAACGCGUGCUCCGUUGAAUGGAGUUCAUCAGG	≤ -4.2
GGAUCUUCUCGAUCUAACAAAAAAGAUAAAUCUGCCACAAAGCUUGAGAGCAGCUUCGGAUGCAGAGGCGGCAGUCUUCGGUGGCGCGAUAGCGACAACGUUCUCAACUAUGACACGCAAAACGCGUGCUCCGUUUAAUGGAGUUUAUCAUG	≤ -4.2
GGAUCUUCUCGAUCUAACAAAAAAGAUAAAUCUGCCACAAAGCUUGAGAGCAUCUUCGGAUGCAGAGGCGGCAGCCUUCGGUGGCUAGAUAGCGCCAACGUUCUCAACUAUGACACGCAAAACGCGUGCUCCGUUGAAUGGAGUUUAUCAUG	≤ -4.2
GGAUCUUCUCGAUCUAACAAAAAAGACCAAUCUGCCACUAAGCUUGAGAGCAUCUUCGGAUGCAGAGGCGGCAGCCUUCGGUGGCGCGAUAGCGCCAACGUUUUCAACUAUGACAGGCAAAACGCGUGCUCCGUUGAAGGGAGUUUAUCAUG	≤ -4.2
GGAUCUUCUCGAUCUAACAAAAAAGAUAAAUCUGCCACAAAGCUUGAGAGCAUCUUCCGAUGCAGAGGCGGCAGCCUUCGGUGGCGAGAUAGCGCCAACGUUCUCAUCUAUGACACGCAAAACGCGUGCUCCGUUGAAUGGAGUUUAUCAUG	≤ -4.2
GGAUCUUCUCGAUCUAACAAAAAAGAUAAAUCUGCCACAAAGCUUGAGAGCAUCUUCGGAUGCAGAGGCGGCAGCCUUCGGUGGUGCGAUAGCGCCAACGUUCUUAACUAUGACCCGCAAAACGCGUGCUCCGUUGAAUUGAGAUUAUAAUG	≤ -4.2
GGAUCUUCUCGAUCUAACAAAAAAGAUAAAUCUGCCACAAAGCUUGAGAGCAUCUUCGGAUACAGAGGCGGCAGCCUUCGGUGGCGCGAUAGCGCCUCCGUUCUCAACUAUGACACGCAAAACGCGUGCUCCGUUGAAUGGAGUUUAUCAUG	-3.33
GGAUCUUCUCGAUCUAACAAAAAAGAUAAAUCUGCCACAAAGCUUGAGAGCAUCUUCGGAUGCAGAGGCGGCAGCCAUCGGUGGCGCGAUACCGCCAACGUUAUCAACUAUGACACGCAAAACGCGUGCUCCGUUGAAUGGAGUUUAUUAUG	≤ -4.2
GGAUCUUCUCGAUCUAACAAAAAAGAUAAAUCUGCCACAAAGCUUCAGAGCAUCUUCGGAUGCAGCGGCGGCAGCCUUCGGUGGCGCGUUAGAGCCAACGUUCUCAACUAUGACUCGCAAAACGCGUGCUCCGUUGAAUGGAGUUUAUCAUG	≤ -4.2
GGAUCUUCUCGAUCUAACAAAAAAGAUAAAUCUGCCACAAAGCUUGAGAGCAUCUUCGGAAGCAGAGGCGGCAGCCUUCGGUGGUGCGAUAGCGCCAACGUUCUCAACUAUGACACGCAAAACGCGUGCUCCGUUGAAUGUAGUUUAUCAUG	≤ -4.2
GGAUCUUCUCGAUCUAACAAAAAAGAUAAAUCCGCCCCAAAGCUUGAGAGCAUCUUCGGAAGCAGAGGCGGCAGCCUUCGGUGGAGGGAUAGCGCCAACGUUCUCAACUAUGACACCCAAAACGCGUGCUCCGUUGAAUGGAGUUUAUCAUG	≤ -4.2
GGAUCUUCUCGAUCUAACAAAAAAGAUAAAUCUGCCACAAAGCUUGAGAGCAUCUUCGCAUGCAGAGGCGGCAACCUUCCAUGGCGCGAUAGCGCCAACGUUCUCAACUAUGACACGCAAAACGUGUGCUCCGUUGAAUGGAGUUUAUCAUG	≤ -4.2
GGAUCUUCUCGAUCUAACAAAAAAGACCAGUCUGCCACAAAGCUUGAGAGCAUCUUCGGAUGCAGAGGCGGCAGCCUUCGGUGGCGCGAUAGUGCCAACGUUUUCAACUAUGACACGCAAAACGCGUGCUCCGUUGAAUGGAGUUUAUCAUG	-4.06
GGAUCUUCUCGAUCUAACAAAAAAGACCACUCUGCCACAAAGCUUGGGAACAUCUUGGGAUGUAGAGGCGGCAGCCUUCGGUGGCGCGAUAGCACCAACGUUCUCAACUAUGACACGCAAAACGAGGGCUCCGUUGGAUGGAGUUUAUCAUG	≤ -4.2
GGAUCUUCUCGAUCUAACAAAAAAGAUAAAUCUGCCACAAAGCUUGAGAGCAUCUUCGGAUGCAGAGGCGGCAGCCUUCGGUGGCGCGAUAGAGCCAACGUUCUCAACUAUGACACGCAAAACGCGUGCUUCGUUAAUUGGAGUUUUUCAUG	≤ -4.2
GGAUCUUCUCGAUCUAACAAAAAAGACCAAUCUGCCACAAAGCUUGCGAGCAUCUUCGGAUGCAGAGCCGGCAGCCUUUGGUGGAGCCAUAGCGCCAACGUUCUCAACUAUGACACGCAAAACGCGUGCUCCGUUGAAGGGAGUUUAUCAUG	≤ -4.2
